# According to PubChem BioAssay AID463173 (ICCB-Longwood Screening Facility, Harvard Medical School, 2010):
# About 1,700 (3.3%) of roughly 52,000 compounds were called active. Cut-off read from the data, not from the text of the source: active = survival mostly below about 52% (no sharp cut-off); inactive = mostly above about 56%. This is one part of the list.
# Tested on: Wild type
# Assay: S. aureus survival, RN4220 and DeltatarO strains – OD600, teichoic acid synthesis inhibitors, primary screen (AID 463173)
# Conditions: S. aureus RN4220 wild type/DeltatarO growth, OD600, 18 h, active compounds read low, screened at 18.75 µg/mL (by protocol)
row,Structure (SMILES),survival
1,O=C(Nc1ccc(CN2CCCCC2)cc1)c1cccnc1Cl,inactive: 101%
2,O=C(O)c1ccc(Cn2cnc3cccnc32)cc1,inactive: 55%
3,CC1CCN(CC2CCN(C(=O)NCc3ccc(F)cc3)CC2)CC1,inactive: 78%
4,COc1ccccc1C(=O)N(Cc1nc(-c2cccc(C)c2)no1)C(C)C,inactive: 56%
5,COc1ccc(S(=O)(=O)c2cnc3cc(OC)c(OC)cc3c2N2CCCC(C)C2)cc1 (stereo unspecified),inactive: 84%
6,Cc1ccc(/C=C/c2onc(C)c2S(=O)(=O)N2CCC(C(=O)N3CCN(c4cccc(C)c4)C(C)C3)CC2)cc1 (stereo unspecified),inactive: 76%
7,CCOc1ccc(C2C(C(=O)Nc3ccccc3)=C(C)Nc3nc(SCc4cccc(OC)c4)nn32)cc1 (stereo unspecified),inactive: 92%
8,O=C(NCc1ccccc1)c1nc(S(=O)(=O)Cc2ccc(F)cc2)ncc1Cl,active: -5%
9,O=S(=O)(NCCc1csc2nc(-c3ccccc3)nn12)c1cccs1,inactive: 81%
10,CCOc1ccc(-c2cn3c(n2)sc2cc(C(=O)NCCc4ccc(OC)cc4OC)ccc23)cc1,inactive: 72%
11,Cc1nn(C(C)C(=O)NC2CCC(C)CC2)c(=O)c2c1sc1ccccc12 (stereo unspecified),inactive: 76%
12,CCc1ccc(OCc2nc(-c3ccc(-n4cccc4)cc3)no2)cc1,inactive: 104%
13,CCc1nc(-c2cc(S(=O)(=O)N3CCN(c4ccc(OC)cc4)CC3)ccc2OC)no1,inactive: 81%
14,CC(C)CCOc1ccc(C2N=C(N)Nc3nc4ccccc4n32)cc1 (stereo unspecified),active: -15%
15,O=C(COc1ccccc1Cl)Nc1nnc(S(=O)(=O)N2CCCC2)s1,inactive: 74%
16,Cc1ccc(NC(=O)CCc2c(C)nn(-c3ccc(N4CCOCC4)nn3)c2C)c(C)c1,inactive: 97%
17,COc1ccc(-n2nc3ccc(NC(=O)c4ccc(C#N)cc4F)cc3n2)cc1Cl,inactive: 85%
18,COc1cccc2c1cc1c(=O)n(CC(=O)N3CCN(c4cccc(C(F)(F)F)c4)CC3)nc(C)n12,inactive: 88%
19,CCOc1ccccc1NC(=O)C(CC(C)C)NC(=O)C1CCC(C)CC1 (stereo unspecified),inactive: 109%

row,Structure (SMILES),survival
1,CCCCN(CC)C(=O)CSc1nc2n[nH]c(C)c2c(=N)n1-c1cccc(C)c1,inactive: 78%
2,CCOc1ccc(NC2SC(=O)N(Cc3ccccc3)C2=O)cc1 (stereo unspecified),inactive: 72%
3,COc1cccc2sc(NC(=O)CS(=O)(=O)c3ccc(C)cc3)nc12,inactive: 73%
4,O=C(Nc1cccs1)Nc1ccc(F)cc1F,inactive: 84%
5,O=C(Nc1cccc(C(F)(F)F)c1)c1cc(-c2ccc(Cl)s2)nc2ccccc12,inactive: 100%
6,O=C(O)Cn1c(-c2cccs2)cc2cc(Cl)ccc21,inactive: 61%
7,COc1ccc(Cn2c(CO)cnc2SCC(=O)Nc2ccc3c(c2)OCCO3)cc1,inactive: 72%
8,COc1cccc(COC(=O)c2ccc(-c3nnn(Cc4cccc(OC)c4)n3)cc2)c1,inactive: 87%
9,COc1cccc(NC(=O)NCCCNc2nc3cc(C)cc(C)c3cc2C#N)c1,inactive: 101%
10,COc1ccc(S(=O)(=O)NCc2cccs2)cc1C(C)(C)C,inactive: 128%
11,Cc1ccc(S(=O)(=O)n2nc(-c3ccc(Cl)cc3)nc2NCc2ccccc2)cc1,inactive: 72%
12,Cn1c(-n2cccc2)c(-c2c(-c3ccc(F)cc3)[nH]c3c2c(=O)n(C)c(=O)n3C)c(=O)n(C)c1=O,inactive: 83%
13,COCCCNC(=O)Cn1nc(N2CCN(c3ccccc3)CC2)ccc1=O,inactive: 119%
14,CCCSc1oc(-c2ccco2)nc1S(=O)(=O)c1ccc(Br)cc1,inactive: 53%
15,COCCn1ccc2c(OCC(=O)Nc3c(C)cc(C)cc3C)cccc2c1=O,inactive: 45%
16,CC(=O)N1CCc2c(sc3c2c(=O)n(-c2ccc(F)cc2)c(=O)n3Cc2ccc(C#N)cc2)C1,inactive: 93%
17,CC1CCc2c(sc3nnn(Cc4cccc(C(=O)OC(C)C)c4)c(=O)c23)C1 (stereo unspecified),inactive: 85%
18,O=c1[nH]c2ccc(S(=O)(=O)NC3CCCCC3)cc2[nH]1,inactive: 115%
19,CC1=C(c2ccc(C(C)C)cc2)S(=O)(=O)N=C1N1CCC(C(=O)NCc2ccccc2)CC1,active: -3%

row,Structure (SMILES),survival
1,COc1ccc(CC(=O)Nc2cc(-c3cn4cccnc4n3)ccc2C)cc1OC,inactive: 85%
2,CCOc1ccccc1CNC(=O)C1CCN(S(=O)(=O)c2c(C)noc2/C=C/c2ccccc2F)CC1,inactive: 72%
3,CCn1c(C(=O)NCc2ccccc2OC)cc2sccc21,inactive: 82%
4,COc1ccc(-n2ccnc(NCc3cccs3)c2=O)cc1OC,inactive: 80%
5,CCOc1ccc(NC(=O)CSC2=Nc3ccccc3C3=NC(CC(=O)NCc4ccc5c(c4)OCO5)C(=O)N23)cc1 (stereo unspecified),inactive: 135%
6,Cc1ccc(S(=O)(=O)c2c(Nc3cccc(Cl)c3)sc(C(=O)c3ccc4c(c3)OCO4)c2N)cc1,inactive: 97%
7,O=C(NCc1ccccc1Cl)c1ccc(NC(=O)N2CCCCc3ccccc32)cc1,inactive: 77%
8,Cc1ccc(C(=O)c2oc3ccccc3c2NC(=O)Cc2coc3c(C)c(C)ccc23)cc1,inactive: 85%
9,COc1cc(C)ccc1OCCSc1nnc(-c2ccc(C)cc2)o1,inactive: 74%
10,COc1ccc(-c2nc3ccccc3n2Cc2ccc(Cl)cc2)cc1,active: 4%
11,O=C(OCc1cc(=O)n2c3c(sc2n1)CCCC3)c1cccc(NC(=O)c2ccccc2F)c1,inactive: 82%
12,Cc1cccc(NC(=O)CN(C)S(=O)(=O)c2ccc3c(c2)c(=O)n(C)c(=O)n3C)c1,inactive: 76%
13,COc1ccccc1C(=O)Nc1ccc(-c2nc3ccccc3s2)c(C)c1,inactive: 82%
14,Cc1cc(Br)ccc1NC(=O)C1(S(=O)(=O)c2ccc(Cl)cc2)CC1,inactive: 85%
15,O=C(NCCS(=O)(=O)N1CCN(c2ccccc2)CC1)C1CC(=O)N(c2ccccc2)C1 (stereo unspecified),inactive: 71%
16,CC1CCCCN1CC(=O)N1CCCc2c1c(=O)oc1ccc(OCc3ccccc3)cc21 (stereo unspecified),inactive: 43%
17,Cc1ccc(S(=O)(=O)NCc2ccc(/C=C(/C#N)C(=O)NC3CCCCC3)o2)cc1,inactive: 109%
18,CCc1ccc(-c2nnn(Cc3nn[nH]n3)n2)cc1,inactive: 104%
